According to article PMC12040169 (PLOS Biology, 2025):
The list shows a part of the results.

system: T1, C. trachomatis L2/434/Bu expressing GFP (CTL2-GFP); set-up: species or system HeLa; C. trachomatis total inclusion area by high-content imaging, normalised to DMSO; conditions: total inclusion area; 28.5 h, 10 µM; inhibitor
T1 construct: L2/434/Bu GFP intracellular growth in HeLa cells
Procedure, shortened: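 High-content imaging followed the bulk GFP/resorufin measurement: fixed, Hoechst-stained cells were scored for GFP inclusions and host nuclei per well. Total inclusion area and count served as growth proxies, nuclei number as the viability proxy. MIC calculation matched the bulk assay.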

Row | Compound | % of control remaining
1 | CC(=O)N1CCc2c([nH]c3c(C)cccc23)C12CCN(C/C=C\c1ccccc1)C2 (centres unmarked) [CBK040414] | 76.4073
2 | CCc1nccn1CCC(=O)NC1CCN(Cc2ccncc2)CC1 [CBK306813] | 62.2981
3 | COc1ccc2[nH]c(-c3cncn3CCCC(C)(C)CO)cc2c1 [CBK281778] | 84.3915
4 | c1ccc(COC(c2ccccc2)c2nc3ccccc3n2Cc2ccccc2)cc1 (centres unmarked) [CBK267311] | 58.6523
5 | COc1ccc2c(c1)C1(CC(=O)N(C)C1=O)C(=O)N2C (centres unmarked) [CBK075146] | 80.7322
6 | COc1ccc(-c2noc([C@@H]3Cc4[nH]cnc4CN3C(=O)CCC(=O)O)n2)cc1 [CBK288967] | 81.2256
7 | O=C(OCc1ccc(S(=O)(=O)N2CCOCC2)cc1)c1cc(-c2ccccc2)nc2ccccc12 [CBK267411] | 101.623
8 | CCc1nc2ccccc2n1CC(=O)N(CCC#N)Cc1cccnc1 [CBK304892] | 67.6538
9 | CCOCCNC(=O)c1coc(COc2ccc3sc(C)nc3c2)n1 [CBK306805] | 38.8414
10 | O=C(O)CNCc1ccc(-c2ccc(Cl)cc2)o1 [CBK287258] | 121.055
11 | Cc1ccc(S(=O)(=O)Nc2cc(Sc3nc(C)cc(C)n3)c(O)c3ccccc23)cc1 [CBK263313] | 93.2576
12 | CCN(CC)C(=O)c1ccccc1NS(=O)(=O)c1cc(Br)ccc1OC [CBK045422] | 80.9543
13 | COc1cc(OC)cc(C(=O)OCc2ccc(F)cc2)c1 [CBK267996] | 104.398
14 | O=C(CN1CCCCC1)Nc1ccc(S(=O)(=O)N2CCOCC2)cc1 [CBK265577] | 105.468
15 | O=C(O)COc1cccc(NC(=O)c2cc3ccccc3o2)c1 [CBK270071] | 90.1752
16 | O=C(O)CCN1CCCC2(CCN(C(=O)c3ccoc3)C2)C1 (centres unmarked) [CBK137139] | 94.4576
17 | Cc1ccc(C(=O)NCC(=O)O)cc1S(=O)(=O)N1CCOCC1 [CBK264534] | 101.674
18 | Cc1cc2cc(CNCCCN3CCCC3=O)c(=O)[nH]c2cc1C [CBK282296] | 90.5519
19 | Cc1ccc(S(=O)(=O)N(CC(=O)O)c2ccc(Cl)cc2)cc1 [CBK263767] | 89.359
20 | COc1cnc(/C=C\c2ccccc2)c(NC(=O)c2cc(C)oc2C)n1 [CBK145222] | 64.5218
21 | Brc1ccc(-n2cc(-c3ccccc3)c3c(NCc4ccccn4)ncnc32)cc1 [CBK266427] | 127.811
22 | COc1cccc(-c2coc3cc4oc(=O)c(CC(=O)O)c(C)c4cc23)c1 [CBK269520] | 83.9903
23 | CCOc1ccc(CNc2sc3c(c2C(=O)Nc2ccc(OC)cc2)CCC3)cc1 [CBK294473] | 103.339
24 | COc1cc(-c2ccc3c(c2)COC2(CCCNC2)O3)cc(OC)c1OC (centres unmarked) [CBK092299] | 67.5675
25 | O=C(O)c1ccccc1C(=O)N1CCN(c2ccc([N+](=O)[O-])cc2)CC1 [CBK287181] | 102.167
26 | O=C(Cc1ccccn1)N1CCCc2ccccc21 [CBK200343] | 78.419
27 | c1ccc2c(CNCCN3CCOCC3)cccc2c1 [CBK278156C] | 77.2824

Row | Compound | % of control remaining
28 | CCc1cc(Br)ccc1S(=O)(=O)NCc1cccc(F)c1 [CBK045114] | 86.0955
29 | O=C(CCc1ccccc1F)NC1CCc2nccn2C1 (centres unmarked) [CBK306124] | 62.4429
30 | N#C/C(=C\c1ccc(-c2ccc(C(=O)O)c(O)c2)o1)c1nc2ccccc2[nH]1 [CBK262121] | 101.792
31 | COC(=O)c1sc(N2CCCC2)c(S(=O)(=O)C(C)C)c1N [CBK009463] | 97.3808
32 | CNc1nc(C(C)(C)C)cs1 [CBK025373] | 74.2273
33 | CC(=O)NCCc1nc2cc(NC(=O)c3cccc([N+](=O)[O-])c3)ccc2n1C [CBK268478] | 83.9506
34 | C[C@@H](c1ccccc1)n1c(=O)[nH]c2ncc(-c3cccc4ccccc34)nc21 [CBK064710] | 93.5787
35 | Cc1c(Cl)ccc2c(C(=O)NCCCn3cc(Br)cn3)cc(-c3ccncc3)nc12 [CBK267731] | 104.275
36 | COC(=O)c1ccccc1NC(=O)CNC(=O)c1ccc(Cl)cc1Cl [CBK267860] | 81.2221
37 | Cc1c(C(=O)NCCOc2ccc(-c3ccccc3)cc2)sc2nc[nH]c(=O)c12 [CBK285805] | 101.316
38 | Cc1ccc(C(=O)Nc2c(C(=O)Nc3cccnc3)cnn2-c2ccccc2)cc1 [CBK263056] | 95.8503
39 | COc1cccc(CNc2nccnc2-c2ccccc2F)c1OC [CBK037993] | 76.7948
40 | O=C(Nc1ccc(O)cc1)c1ccc2c(c1)C(=O)N(c1cccc(N3C(=O)c4ccc(C(=O)Nc5ccc(O)cc5)cc4C3=O)n1)C2=O [CBK261334] | 103.716
41 | O=C(Cc1cn2ccsc2n1)Nc1ccc(N2CCCCC2)cc1 [CBK306185] | 71.3591
42 | O=S(=O)(NCC(O)Cn1c2ccc(Cl)cc2c2cc(Cl)ccc21)c1ccccc1 (centres unmarked) [CBK262542] | 95.0431
43 | Cc1cc(=O)c(O)c(CN2CCC(C(=O)O)CC2)o1 [CBK286843] | 82.3837
44 | CCOC(=O)CN1C(c2ccccc2O)Nc2ccc(Br)cc2C1c1ccccc1 (centres unmarked) [CBK263130] | 79.9526
45 | O=C(c1cccnc1)N1CCCC(c2cc3ccccc3cn2)C1 (centres unmarked) [CBK285154] | 100.292
46 | O=C(O)COc1ccc(NC(=O)Cc2ccc([N+](=O)[O-])cc2)cc1 [CBK268573] | 124.279
47 | Cc1cc(C)nc(SCCCn2c(=O)[nH]c3ccccc32)n1 [CBK264485] | 93.7137
48 | CCNc1cc(-c2ccco2)ncn1 [CBK090879] | 110.382
49 | NS(=O)(=O)c1cnccc1NCCc1ccccc1 [CBK058003] | 44.1239
50 | CC(C)Cn1c(SCC(=O)Nc2ccc(OC(F)F)cc2)nc(O)cc1=O [CBK296679] | 77.0198
51 | O=C(CC1S/C(=N/N=C/c2cn(Cc3ccccc3)c3ccccc23)NC1=O)Nc1ccccc1 (centres unmarked) [CBK264529] | 119.361
52 | CCN(CCC(C)Sc1ccccc1)c1cncc(Oc2ccc(S(C)(=O)=O)cc2)n1 (centres unmarked) [CBK137186T] | 86.7003
53 | CSCc1nnc(SCCC(=O)N2CCN(c3ccc(F)cc3)CC2)o1 [CBK240463] | 40.2351
54 | O=C(CSc1nc(-c2ccco2)cc(C(F)(F)F)n1)NCc1ccco1 [CBK266091] | 50.6364

Row | Compound | % of control remaining
55 | CCc1cc(CNC(=O)c2cc(C)nc3c(C)cccc23)on1 [CBK281554] | 87.6069
56 | O=C1CCCN1CC(=O)N1CCCC(c2cc3ccccc3cn2)C1 (centres unmarked) [CBK285091] | 73.7874
57 | Cc1ccc(-c2ncc3c(=O)[nH]c(=O)n(C)c3n2)cc1 [CBK288553] | 69.3311
58 | COc1ncc(-c2nccnc2NCc2cccc(OC)c2OC)c(OC)n1 [CBK037506] | 112.109
59 | Fc1ccc2nc(NCC3CCCO3)sc2c1 (centres unmarked) [CBK287647] | 83.6647
60 | COc1cccc2sc(NC(=O)c3ccc4occc4c3)nc12 [CBK149278] | 98.6195
61 | O=C(NC1(c2ccc(Cl)cc2)CC1)C1CCS(=O)(=O)C1 (centres unmarked) [CBK282765] | 109.332
62 | Cc1nn(C)cc1-c1cncn1C(CCN(C)C)c1ccccc1 (centres unmarked) [CBK281987] | 81.2444
63 | C[S+]([O-])CCNC(=O)c1cc(-c2ccc(F)cc2)no1 (centres unmarked) [CBK283251] | 110.243
64 | CCOC(=O)c1ccc(-c2ccc(OC)cc2)cc1 [CBK002658] | 71.3077
65 | CN(C)CCN(C)C(=O)Cc1csc(-c2ccccc2F)n1 [CBK282173] | 81.0721
66 | CN(C)S(=O)(=O)Nc1ccc(-c2nnn[nH]2)cc1 [CBK156312] | 114.362
67 | COc1cc(NC(=O)Cn2cnc3c2c(=O)n(C)c(=O)n3C)c(OC)cc1Cl [CBK133231] | 56.7207
68 | CCCC(CCC(=O)Nc1ccccc1Cl)C(=O)O (centres unmarked) [CBK286757] | 70.12
69 | COC(=O)[C@@H]1Cc2ncn(C(C)C)c2CN1S(=O)(=O)c1ccc(C#N)cc1 [CBK288986] | 87.0734
70 | Cc1cnn(CC(=O)NC(Cc2ccsc2)c2nccs2)c1 (centres unmarked) [CBK282825] | 98.4321
71 | Cc1cccc(-c2ncc(NC(=O)Cc3ccc(-c4ccccc4)cc3)nc2-c2ccc(N(C)C)cc2)c1 [CBK037567] | 99.3076
72 | O=C1OC(c2ccco2)=N/C1=C/Nc1ccc(C(=O)O)cc1 [CBK265195] | 96.4638
73 | CCNC(=O)N1CCCC(Cc2ccc(F)cc2F)(C(=O)OCC)C1 (centres unmarked) [CBK306734] | 63.1105
74 | COc1ccccc1N1CCN(CCc2n[nH]c(=S)n2-c2ccccc2)CC1 [CBK262212] | 85.88
75 | COc1cc(CN2CCCN(C)CC2)c([N+](=O)[O-])cc1OC [CBK261539] | 104.991
76 | C[C@@H](NC(=O)N(Cc1ccc([N+](=O)[O-])cc1)CC(C)(C)N)c1cccc2ccccc12 [CBK004921] | 57.2654
77 | CC(C)(C)OC(=O)n1cnc(CC#N)c1 [CBK000202] | 65.577
78 | CCN(Cc1ccc(C#N)cc1F)C(=O)NC(C)c1nncn1C (centres unmarked) [CBK305888] | 84.4665
79 | Cc1ccc(C(=O)NCC2COc3ccccc3O2)c(N2CCN(C(=O)c3ccco3)CC2)n1 (centres unmarked) [CBK076356] | 93.315
80 | O=S(=O)(N1CCCCCC1)N1CCN(S(=O)(=O)N2CCCCCC2)CC1 [CBK269210] | 110.674
